Experimental data as given in ChEMBL document CHEMBL4888484, “Replenishing the malaria drug discovery pipeline: Screening and hit evaluation of the MMV Hit Generation Library 1 (HGL1) against asexual blood stage Plasmodium falciparum ,using a nano luciferase reporter read-out” (2022).
Screen size: about 150,000 compounds; about 540 (0.36%) showed an effect of 50% or more. This is one part of the list.

What follows are molecules tested on Plasmodium falciparum (assay: Primary screen in NF54 nanoGlo assay, in single point, at 2uM, 72h; a lower Z score goes with more inhibition). Details: timepoint 72 hour.
Assay type: functional, Erythrocyte

| Compound | % Inhibition [%] | Z score |
| --- | --- | --- |
| CC(C)N(CC(F)(F)F)C(=O)Cn1nccc1-c1ccncc1 | 1 | -0.15 |
| c1ccc(Cn2ccnc2CN(CC2CC2)c2ccccc2)cc1 | 9 | -1.28 |
| O=C(CCc1cn[nH]c1)N1CCC[C@H](c2nnc3ccccn23)C1 | 4 | -0.9 |
| CCc1noc([C@]2(O)CCN(C(=O)N(C)CC(C)(C)C)C2)n1 | -3 | 0.51 |
| CC1(C)N=C(c2ccccc2)C(=O)N1CC(=O)N1CCN(c2ccccc2)CC1 | -2 | 0.28 |
| CS(=O)(=O)N1CCN(C(=O)c2ccccc2O)Cc2ccccc21 | -18 | 2.19 |
| CCCN(C(=O)c1ccc2[nH]nnc2c1)[C@@H](C)c1cc2ccccc2o1 | -14 | 1.97 |
| CCc1ccnc(C(=O)NC(C)(C)c2nc(C)no2)c1 | -9 | 1.2 |
| Cc1cc(C(=O)N2CCO[C@H](c3ccco3)C2)no1 | -13 | 1.52 |
| CCN1C[C@@H](CN(C)Cc2nc(-c3ccc(OC)c(OC)c3OC)no2)CC1=O | -11 | 1.29 |
| Cc1noc(C)c1CN1CCC(CC2CC2)(C(N)=O)CC1 | 2 | -0.24 |
| COc1ccc(CCNC(=O)CN2C(=O)CCn3nc(-c4cccn4C)cc32)cc1OC | -6 | 1.08 |
| COc1cccc(CC2(C(=O)N3CCOCC3)CC3CCC2C3)c1 (stereo not given) | -9 | 1.2 |
| CN(C)c1nc(NCC[C@H]2CCCCN2S(C)(=O)=O)ncc1F | 6 | -0.86 |
| O=C(N[C@H](c1cccnc1)C1CCOCC1)c1ccccn1 | -4 | 0.81 |
| CCC[C@H](C)N1CC2(CCN(C(=O)c3ccccn3)CC2)OC1=O | -4 | 0.59 |
| CN(Cc1nc2ccc(F)cc2[nH]1)Cc1cn(C)nc1-c1cccc(Cl)c1 | 3 | -0.69 |
| COc1cc(-c2cc(C3CCC3)nc(N)c2C#N)cc(Cl)c1O | -9 | 1.45 |
| Cn1ccnc1[C@H]1CCN(c2nc3cc(S(N)(=O)=O)ccc3[nH]2)C1 | -8 | 1.07 |
| O=C1NC(=O)C(Cc2ccc(NC(=O)[C@H]3C[C@@H]3c3cccc(Cl)c3)cc2)N1 (stereo not given in full) | -7 | 1.35 |
| CC(C)c1cc(CN(C)C(=O)CN2C(=O)OC[C@@H]2c2ccccc2)no1 | -9 | 1.61 |
| COc1cc2c(cc1OC)CN(C(=O)CC1C[C@H]3CC[C@@H]1C3)CC2 (stereo not given in full) | -15 | 1.91 |

| Compound | % Inhibition [%] | Z score |
| --- | --- | --- |
| CC(C)CNC(=O)c1nc2cccnc2n(C)c1=O | -12 | 1.86 |
| Cc1ncn(CCNS(=O)(=O)CC(C)C)c1C | -13 | 2.25 |
| COc1ccc(CN(C)c2cc([C@H]3C[C@@H](N)C3)ncn2)cc1 | -4 | 0.58 |
| Cc1cc(Br)cc(C(=O)N(CC(N)=O)C(C)C)c1 | -3 | 0.49 |
| COCC(=O)Nc1cc(C(=O)N(C)C2CCOCC2)cc2ncn(CCc3ccccc3)c12 | 14 | -1.88 |
| Cc1oc(C2CCN(S(=O)(=O)c3ccc(C(C)C)cc3)CC2)nc1C(=O)N(C)C | -7 | 1.1 |
| O=C(O)C[C@@H]1CCN(C(=O)NC2CCCCC2)C[C@@H]1CCN1CCCCC1 | 10 | -1.52 |
| O=C(Cn1nc(C2CC2)ccc1=O)N1CCN(c2ncccn2)CC1 | 11 | -1.45 |
| Cc1cc(C)cc(C2(c3noc(C4C[C@@H]5CC(=O)[C@H]4C5)n3)CC2)c1 (stereo not given in full) | 18 | -2.23 |
| O=C(CCc1cc(O)no1)N1CCC(c2cc(N3CCCC3)ncn2)CC1 | -10 | 1.45 |
| CC(C)C(=O)N1CCC[C@H](Nc2nc3cc(C(=O)O)ccc3n2C)C1 | -14 | 2.41 |
| CC(=O)N1CCN(C(=O)N[C@H](C)c2ccc(F)cc2)CC1 | -15 | 2.82 |
| Cc1noc(C)c1C[C@H](C)NS(=O)(=O)CCC(C)(F)F | -8 | 1.12 |
| O=C(c1cccc(-c2ccc3nccc(O)c3c2)c1)N1CCN(CCO)CC1 | -18 | 3.37 |
| CCOc1cc(C(=O)N2CCN(S(C)(=O)=O)CC2)ncn1 | -9 | 1.67 |
| CC[C@H]1CCCCN1CCNC(=O)NCc1scnc1C | 1 | -0.17 |
| Cc1ncncc1C(=O)N(C)[C@H]1CCCN(C(=O)COCC(F)F)C1 | -3 | 0.44 |
| COc1cc(C)nc(NC(=O)[C@H]2CCCOCC2)n1 | -9 | 1.57 |
| C[C@H](NCc1nnc2ccccn12)C1CN(C(=O)OC(C)(C)C)C1 | 4 | -0.53 |
| CCc1cc(N(C)Cc2noc(C)n2)nc(C)n1 | -10 | 0.96 |
| CCCCN(C(=O)c1ccccc1)C(=O)c1ccccc1 | 36 | -4.04 |
| O=C(Cc1n[nH]c(=O)[nH]1)N[C@H]1CCc2ccccc21 | -5 | 0.88 |

| Compound | % Inhibition [%] | Z score |
| --- | --- | --- |
| O=C(CCc1ccncc1)N[C@H]1CC(=O)N(Cc2cccc3ccccc23)C1 | -4 | 0.61 |
| Cc1ccc(OC2CCN(C(=O)c3nn(C)c4c3CCCC4)CC2)cc1 | -10 | 1.11 |
| CCCn1cnc(NC(=O)NCc2cc(CC)no2)n1 | -7 | 0.89 |
| CCCC[C@H](CC)C(=O)NCc1ccc(S(N)(=O)=O)cc1 | -1 | 0.11 |
| O[C@H]1COC[C@@H]1Nc1ncc(Cl)cn1 | -8 | 1.6 |
| Cc1ccc(COc2cccc(CNC3CC3)c2)cc1 | 30 | -4.1 |
| COC(=O)[C@]1(NCC(=O)NCc2cccc(OC)c2)CCCN(Cc2ccccc2)C1 | -8 | 0.68 |
| c1ccc(CN2CCCCCCC2)nc1 | -16 | 3 |
| O=C(Nc1cccc2ncccc12)[C@@H]1COc2ccccc2O1 | -1 | 0.11 |
| CCS(=O)(=O)N1CCC[C@H](c2cc(F)ccc2F)C1 | -2 | 0.46 |
| COc1ccc(CNC(=O)N2CCC[C@H](Cc3nncn3C)C2)cc1 | -9 | 1.13 |
| C=C(C)COc1ccccc1CN1CCN2CCNC(=O)[C@@H]2C1 | -4 | 0.45 |
| O=C(c1ccc(Oc2ccccc2)o1)N1CCNC(=O)C12CCCC2 | -9 | 1.65 |
| O=c1[nH]c(=O)n(CCS(=O)(=O)c2ccccc2)cc1Cl | -11 | 1.09 |
| C[C@]1(O)CCN(Cc2ccc(-c3ccccc3C#N)o2)C[C@@H]1O | -5 | 0.75 |
| CC(C)Cc1cc(C(=O)N2CCc3ccccc3C2)no1 | -6 | 0.65 |
| C[C@@H]1NC(=O)N(CCc2cccc(C(=O)N(C)C)c2)C1=O | -12 | 1.58 |
| COc1ccc([C@H]2[C@H](C(=O)NCc3c(C)noc3C)CCC(=O)N2C)cc1 | 30 | -3.4 |
| Cc1[nH]c2ncnc(N3CCNC(=O)C3)c2c1C | -4 | 0.6 |
| O=C1C[C@@H]2CCN(C3CCC(F)(F)CC3)C[C@@H]2CCOc2ccccc2N1 | 0 | -0.02 |
| COC1CCC(C)(CNC(=O)N2CCC(C)C(C(=O)O)C2)CC1 (stereo not given) | -2 | 0.43 |
| CCN(CC)c1nc2ncn(CC(=O)Nc3ccc(C)cc3Cl)c(=O)c2s1 | -8 | 0.99 |

| Compound | % Inhibition [%] | Z score |
| --- | --- | --- |
| CCCN(CC1CC1)C(=O)c1c[nH]c(C(F)(F)F)c1 | 4 | -0.54 |
| O=C(NCc1ccccc1Cl)c1cn(C[C@H](O)c2cccs2)nn1 | -2 | 0.47 |
| Cc1n[nH]c2c1CN(S(=O)(=O)c1cc(-c3ccno3)sc1C)CC2 | -3 | 0.31 |
| CC1CCN(S(=O)(=O)Nc2cccnc2)CC1 | 6 | -1.04 |
| COC(=O)c1ccccc1Cn1ncc2c1[C@@H](NC(=O)OC(C)(C)C)CCC2 | -9 | 1.44 |
| Cn1c(-c2ccccc2Cl)c(-c2cn3ccccc3n2)c(=O)n(C)c1=O | -6 | 0.62 |
| Cc1ccc2ncc(CN3CCN(c4nnc(C)s4)CC3)cc2c1 | -3 | 0.44 |
| O=S(=O)(c1cncc(F)c1)N(Cc1ccccc1)c1ccncc1 | -7 | 1.17 |
| CCCn1nc(CCOC)nc1-c1cc(CC(C)C)nn1C | -4 | 0.83 |
| Cc1nc([C@H](C)NC(=O)c2c[nH]nn2)cs1 | -16 | 3.47 |
| CC(=C1CCCC1)c1nc(-c2ccncc2)no1 | -6 | 1.06 |
| CC(C)C[C@@H](CNC(=O)COCc1nc2ccccc2c(=O)[nH]1)N1CCOCC1 | 34 | -3.8 |
| CC(=O)N1C[C@@H](O)C[C@@H]1C(=O)N1CCCC1c1ccc(F)cc1C (stereo not given in full) | 0 | -0.05 |
| Cc1c(C(=O)N[C@H]2CCN(Cc3cscn3)C[C@@H]2O)ccn1C | -9 | 0.92 |
| COC1CC2C(=O)N(C3CCN(c4ccccn4)CC3)C(=O)N2C1 (stereo not given) | 3 | -0.44 |
| CCOc1cc2c(cc1OCC)[C@@H]1CC(=O)N(c3ccc4c(c3)OCO4)C(=O)N1CC2 | 12 | -2.02 |
| Cc1cccc(NC(=O)Cn2c(C)cc(=O)n3nc(-c4cccc(C)c4)nc23)c1 | -3 | 0.39 |
| COc1ccc([C@H]2CN(c3nc(N(C)C)nc(C)c3C)C[C@@H]2N)cc1 | 8 | -1.16 |
| CN1CCC(Cc2ccc(CN(C(=O)C3CCCC3)C3CC3)cc2)CC1 | -10 | 1.85 |
